Data as given in the supplement of paper PMC8728848.
The other results are listed elsewhere or left out.

Columns and labels:
Assay in all cases: glycan array binding signal (z-score within array); higher = stronger binding
Conditions in all cases: glycan notation: IUPAC condensed, linker removed
Fuc(a1-3)GlcNAc = target: Fuc(a1-3)GlcNAc
Summary of the method: (§1)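 The binding signal is a Z-score computed within each array and averaged over linkers. Arrays of the same protein sequence at different concentrations or buffers were also averaged together. Data originate from 3228 arrays in the Consortium for Functional Glycomics database, kept only where the protein sequence was available.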

[1] = target: Fuc(a1-3)[Gal(b1-4)]Glc6S
Summary of the method: as §1

[2] = target: Fuc(a1-3)[Gal(b1-4)]GlcNAc
Summary of the method: as §1

[3] = target: Fuc(a1-3)[Gal(b1-4)]GlcNAc(b1-2)Man
Summary of the method: as §1

[4] = target: Fuc(a1-3)[Gal(b1-4)]GlcNAc(b1-2)Man(a1-3)[Fuc(a1-3)[Gal(b1-4)]GlcNAc(b1-2)Man(a1-6)]Man(b1-4)GlcNAc(b1-4)GlcNAc
Summary of the method: as §1

[5] = target: Fuc(a1-3)[Gal(b1-4)]GlcNAc(b1-2)Man(a1-3)[Fuc(a1-3)[Gal(b1-4)]GlcNAc(b1-2)Man(a1-6)]Man(b1-4)GlcNAc(b1-4)[Fuc(a1-6)]GlcNAc
Summary of the method: as §1

[6] = target: Fuc(a1-3)[Gal(b1-4)]GlcNAc(b1-3)Gal(b1-3)[Fuc(a1-4)]GlcNAc
Summary of the method: as §1

[7] = target: Fuc(a1-3)[Gal(b1-4)]GlcNAc(b1-3)Gal(b1-4)[Fuc(a1-3)]GlcNAc
Summary of the method: as §1

[8] = target: Fuc(a1-3)[Gal(b1-4)]GlcNAc(b1-3)Gal(b1-4)[Fuc(a1-3)]GlcNAc(b1-3)Gal(b1-4)[Fuc(a1-3)]GlcNAc
Summary of the method: as §1

[9] = target: Fuc(a1-3)[Gal(b1-4)]GlcNAc(b1-3)GalNAc
Summary of the method: as §1

[10] = target: Fuc(a1-3)[Gal(b1-4)]GlcNAc(b1-6)GalNAc
Summary of the method: as §1

[11] = target: Fuc(a1-3)[Gal(b1-4)]GlcNAc(b1-6)[Gal(b1-3)GlcNAc(b1-3)]Gal(b1-4)Glc
Summary of the method: as §1

[12] = target: Fuc(a1-3)[Gal(b1-4)]GlcNAc6S
Summary of the method: as §1

[13] = target: Fuc(a1-3)[Gal3S(b1-4)]Glc
Summary of the method: as §1

[14] = target: Fuc(a1-3)[Gal3S(b1-4)]GlcNAc
Summary of the method: as §1

[15] = target: Fuc(a1-3)[Gal3S(b1-4)]GlcNAc6S
Summary of the method: as §1

[16] = target: Fuc(a1-3)[GalNAc(b1-4)]GlcNAc
Summary of the method: as §1

[17] = target: Fuc(a1-3)[GalNAc(b1-4)]GlcNAc6S
Summary of the method: as §1

Fuc(a1-4)GlcNAc = target: Fuc(a1-4)GlcNAc
Summary of the method: as §1

Fuc(b1-3)GlcNAc = target: Fuc(b1-3)GlcNAc
Summary of the method: as §1

Gal(a1-2)Gal = target: Gal(a1-2)Gal
Summary of the method: as §1

Gal(a1-3)Gal = target: Gal(a1-3)Gal
Summary of the method: as §1

Gal(a1-3)Gal(b1-3)GlcNAc = target: Gal(a1-3)Gal(b1-3)GlcNAc
Summary of the method: as §1

[18] = target: Gal(a1-3)Gal(b1-3)GlcNAc(b1-2)Man
Summary of the method: as §1

[19] = target: Gal(a1-3)Gal(b1-3)GlcNAc(b1-2)Man(a1-3)[Gal(a1-3)Gal(b1-3)GlcNAc(b1-2)Man(a1-6)]Man(b1-4)GlcNAc(b1-4)GlcNAc
Summary of the method: as §1

[20] = target: Gal(a1-3)Gal(b1-3)GlcNAc(b1-3)GalNAc
Summary of the method: as §1

[21] = target: Gal(a1-3)Gal(b1-3)GlcNAc(b1-6)GalNAc
Summary of the method: as §1

[22] = target: Gal(a1-3)Gal(b1-3)[Fuc(a1-4)]GlcNAc(b1-2)Man(a1-3)[Gal(a1-3)Gal(b1-3)[Fuc(a1-4)]GlcNAc(b1-2)Man(a1-6)]Man(b1-4)GlcNAc(b1-4)GlcNAc
Summary of the method: as §1

Gal(a1-3)Gal(b1-4)Glc = target: Gal(a1-3)Gal(b1-4)Glc
Summary of the method: as §1

Gal(a1-3)Gal(b1-4)GlcNAc = target: Gal(a1-3)Gal(b1-4)GlcNAc
Summary of the method: as §1

B1: B160 (Bifidobacterium sp) (protein)
chain: MVSHNKRIVAALAAVAAMGIGLAGCGGSDTAGDTKSGSDGGVVNITYMHRLPDSEGMTLVNDIVAKWNKEHPNIQVKATKFDGNAADMIKKLETDVKAGNAPDLAQVGYAEVPEVFTKGLLQDVTDEAAKYKDDFASGPFALMQVDGKTYGLPQDTGPLTYFYNAAEFEKLGITVPKTADELIETAKKTAAQGKYIMTFTPDEAMMMMSGQAGASGPWYKVDGNSWVVNTQTKGSKAVADVYQQLIDNKAALTNPRWDASFDNSIQSGQLIGTVAAAWEAPLFIDSAGGTGAGEWKVTQLGDWFGNGTKTGANGGSGVAVLKGSKHPAEAMEFLDWFNTQVDDLVSQGLVVAATTADAKTPQKWSDYFSGQDVMAEFKTANDNMGDFTYMPGFSAVGAAMKQTAAKAADGSAKVSDVFDTAQKTSVDTLKNLGLSVKE
With B1 the “glycan array binding signal (z-score)” value (Fuc(a1-3)GlcNAc) was -0.183, the “glycan array binding signal (z-score)” value [1] was -0.115 and the “glycan array binding signal (z-score)” value [2] was -0.175. The “glycan array binding signal (z-score)” value [3] was -0.173, the “glycan array binding signal (z-score)” value [4] was -0.182 and the “glycan array binding signal (z-score)” value [5] was -0.111. The “glycan array binding signal (z-score)” value [6] was -0.164, the “glycan array binding signal (z-score)” value [7] was -0.148 and the “glycan array binding signal (z-score)” value [8] was -0.14. The “glycan array binding signal (z-score)” value [9] was -0.166, the “glycan array binding signal (z-score)” value [10] was -0.156 and the “glycan array binding signal (z-score)” value [11] was -0.155. For the same binder, the “glycan array binding signal (z-score)” value [12] was -0.152, the “glycan array binding signal (z-score)” value [13] was -0.13 and the “glycan array binding signal (z-score)” value [14] was -0.163. For the same binder, the “glycan array binding signal (z-score)” value [15] was -0.145, the “glycan array binding signal (z-score)” value [16] was -0.159 and the “glycan array binding signal (z-score)” value [17] was -0.17. For the same binder, the “glycan array binding signal (z-score)” value (Fuc(a1-4)GlcNAc) was -0.176, the “glycan array binding signal (z-score)” value (Fuc(b1-3)GlcNAc) was -0.182 and the “glycan array binding signal (z-score)” value (Gal(a1-2)Gal) was -0.156. For the same binder, the “glycan array binding signal (z-score)” value (Gal(a1-3)Gal) was -0.146, the “glycan array binding signal (z-score)” value (Gal(a1-3)Gal(b1-3)GlcNAc) was -0.163 and the “glycan array binding signal (z-score)” value [18] was -0.143. The “glycan array binding signal (z-score)” value [19] was -0.151, the “glycan array binding signal (z-score)” value [20] was -0.171 and the “glycan array binding signal (z-score)” value [21] was -0.156. The “glycan array binding signal (z-score)” value [22] was -0.07, the “glycan array binding signal (z-score)” value (Gal(a1-3)Gal(b1-4)Glc) was -0.138 and the “glycan array binding signal (z-score)” value (Gal(a1-3)Gal(b1-4)GlcNAc) was -0.166.
